Hit rate of the full screen: of about 310,000 compounds, about 14,000 (4.5%) showed an effect of 50% or more. The effect is printed as a negative number. The list shows a part of the results.
These compounds were tested against human ether-à-go-go-related gene (hERG) potassium channel (human, UniProt Q12809) (assay: primary screen, population patch clamp on CHO cells stably expressing hERG).
Chain of human ether-à-go-go-related gene (hERG) potassium channel (Q12809 whole entry, looked up): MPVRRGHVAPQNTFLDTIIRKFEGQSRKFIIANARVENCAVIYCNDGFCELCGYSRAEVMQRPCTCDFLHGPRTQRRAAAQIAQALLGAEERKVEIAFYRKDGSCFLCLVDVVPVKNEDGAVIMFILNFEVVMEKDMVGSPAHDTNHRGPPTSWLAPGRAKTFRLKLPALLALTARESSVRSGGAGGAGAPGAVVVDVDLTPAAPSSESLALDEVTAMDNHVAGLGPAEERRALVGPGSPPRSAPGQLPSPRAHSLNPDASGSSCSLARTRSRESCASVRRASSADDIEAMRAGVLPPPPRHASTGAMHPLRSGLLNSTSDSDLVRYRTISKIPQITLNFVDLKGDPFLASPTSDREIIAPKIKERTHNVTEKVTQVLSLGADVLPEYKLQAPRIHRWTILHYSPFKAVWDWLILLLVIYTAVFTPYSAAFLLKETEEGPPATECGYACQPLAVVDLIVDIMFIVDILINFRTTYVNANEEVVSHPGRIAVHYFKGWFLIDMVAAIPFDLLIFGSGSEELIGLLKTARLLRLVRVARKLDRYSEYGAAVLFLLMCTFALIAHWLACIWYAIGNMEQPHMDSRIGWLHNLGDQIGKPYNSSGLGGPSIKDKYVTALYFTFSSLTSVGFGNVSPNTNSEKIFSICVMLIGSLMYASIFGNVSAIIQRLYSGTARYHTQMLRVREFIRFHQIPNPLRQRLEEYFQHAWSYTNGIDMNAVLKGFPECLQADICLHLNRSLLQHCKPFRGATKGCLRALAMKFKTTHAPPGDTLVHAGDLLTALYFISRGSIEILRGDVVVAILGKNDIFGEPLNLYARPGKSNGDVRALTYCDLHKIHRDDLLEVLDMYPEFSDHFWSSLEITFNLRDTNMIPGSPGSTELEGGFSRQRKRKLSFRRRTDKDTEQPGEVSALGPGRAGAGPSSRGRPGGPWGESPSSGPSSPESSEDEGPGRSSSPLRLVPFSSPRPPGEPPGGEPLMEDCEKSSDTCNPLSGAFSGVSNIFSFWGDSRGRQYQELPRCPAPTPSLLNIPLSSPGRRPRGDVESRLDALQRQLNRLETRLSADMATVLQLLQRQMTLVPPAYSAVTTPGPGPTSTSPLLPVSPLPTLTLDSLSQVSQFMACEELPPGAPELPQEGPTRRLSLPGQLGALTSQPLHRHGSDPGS
`CC(=O)Nc1ccccc1OCC(=O)NCCC1=CCCCC1` was tested, and the “hERG current change (%, negative = inhibition) at 10uM” value was 7.87%.
For `COc1ccc(CN(C(=O)c2cccs2)C(C(=O)NC2CCCCC2)c2ccc3ncccc3c2)cc1` (stereo not shown), the “hERG current change (%, negative = inhibition) at 10uM” value was -47.9%.
`COc1ccc(-c2cn3cc(C(F)(F)F)cc(Cl)c3n2)cc1` was tested, and the “hERG current change (%, negative = inhibition) at 10uM” value was 9.73%.
For `COc1ccc(C(=O)N/C(=C/c2cccc3ccccc23)C(=O)NCCc2c[nH]c3ccccc23)cc1OC`, the “hERG current change (%, negative = inhibition) at 10uM” value was 0.199%.
`Cc1c(-c2ccc(Br)cc2)nc2ccccn12` was tested, and the “hERG current change (%, negative = inhibition) at 10uM” value was -16.3%.
In the case of `O=C(NN1CCOCC1)c1ccc(Cl)cc1Cl`, the “hERG current change (%, negative = inhibition) at 10uM” value is reported as -0.63%.
For `COc1cccc(C2=NO[C@@H]3C(=O)N(Cc4ccccc4)C(=O)[C@H]23)c1OC`, the “hERG current change (%, negative = inhibition) at 10uM” value was -0.559%.
For `COc1ccc(O)c(/C=N/NC(=O)c2cc(=O)[nH]c3ccccc23)c1`, the “hERG current change (%, negative = inhibition) at 10uM” value was -5.01%.
For `Cc1ccc(S(=O)(=O)NCCC(=O)N2CCN(S(=O)(=O)c3cccc(F)c3)CC2)cc1C`, the “hERG current change (%, negative = inhibition) at 10uM” value was -16.2%.
With `COc1ccc(-c2cn(CCC(=O)NCc3ccc(C)cc3)c(CCN)n2)cc1` the “hERG current change (%, negative = inhibition) at 10uM” value was -3.37%.
For `CC1CCN(C(=O)C2CCN(C(=O)c3cc4sccc4n3Cc3ccc(F)cc3)CC2)CC1`, the “hERG current change (%, negative = inhibition) at 10uM” value was -6.67%.
For `COc1ccccc1-c1cc(C(F)(F)F)nc(S(=O)(=O)CCCC(=O)N2CCOCC2)n1`, the “hERG current change (%, negative = inhibition) at 10uM” value was 2.47%.
In the case of `CC(=O)Nc1ccc(OCC(O)CN2CCN(c3ccccc3Cl)CC2)cc1` (stereo not shown), the “hERG current change (%, negative = inhibition) at 10uM” value is reported as -50.2%.
In the case of `Cc1ccc(CSC2=Nc3ccccc3C3=NC(CC(=O)NCc4ccco4)C(=O)N23)cc1` (stereo not shown), the “hERG current change (%, negative = inhibition) at 10uM” value is reported as -51.8%.
`COCC(=O)N(Cc1cc2ccc(C)c(C)c2n2nnnc12)C1CCCC1` was tested, and the “hERG current change (%, negative = inhibition) at 10uM” value was 9.66%.
For `CCn1cnc2c1c(=O)n(Cc1cccc(Br)c1)c(=O)n2Cc1ccccc1`, the “hERG current change (%, negative = inhibition) at 10uM” value was 12%.
`CCCS(=O)(=O)N1CCCC(C(=O)N2CCN(c3ccccc3)CC2)C1` (stereo not shown) was tested, and the “hERG current change (%, negative = inhibition) at 10uM” value was 6.84%.
`Cc1cc(NC(=O)CSc2nnc3ccc(-c4ccc(F)cc4)nn23)no1` was tested, and the “hERG current change (%, negative = inhibition) at 10uM” value was 14.4%.
With `CCc1cccc(C)c1NC(=S)N(CCOC)C(C)c1ccco1` (stereo not shown) the “hERG current change (%, negative = inhibition) at 10uM” value was -9.38%.
`CCCNC(=S)NC1CCCC1` was tested, and the “hERG current change (%, negative = inhibition) at 10uM” value was -15.1%.
In the case of `O=C(NCc1ccccc1)C(c1ccc(F)cc1)N(C(=O)c1csnn1)c1ccccc1` (stereo not shown), the “hERG current change (%, negative = inhibition) at 10uM” value is reported as 17%.
`CC1CN(C(=O)CCNC(=O)c2ccc(Br)cc2)CC(C)O1` (stereo not shown) was tested, and the “hERG current change (%, negative = inhibition) at 10uM” value was -4.12%.
With `O=[N+]([O-])c1ccc2nc(-c3ccccc3)n(OCc3ccc(Cl)cc3)c2c1` the “hERG current change (%, negative = inhibition) at 10uM” value was 3.68%.
`CC1(c2ccccc2)NC(=O)N(NC(=O)CSc2n[nH]c(N)n2)C1=O` (stereo not shown) was tested, and the “hERG current change (%, negative = inhibition) at 10uM” value was 25.3%.
With `COc1ccc(Nc2nc3cc(C)ccc3cc2C#N)c(OC)c1` the “hERG current change (%, negative = inhibition) at 10uM” value was 8.19%.
`Clc1cc2c(nn1)Nc1ccccc1S2` was tested, and the “hERG current change (%, negative = inhibition) at 10uM” value was -0.181%.
With `CC1=CC(C)(C)N(C(=O)CN2C(=O)c3ccccc3C2=O)c2ccc(C)cc21` the “hERG current change (%, negative = inhibition) at 10uM” value was -2.01%.
In the case of `Nc1nc2n(n1)C(c1ccco1)CC(c1ccc(Cl)c(Cl)c1)N2` (stereo not shown), the “hERG current change (%, negative = inhibition) at 10uM” value is reported as -31.4%.
`COc1ccc(CC(=O)Nc2ccc(S(=O)(=O)N(C)C3CCN(C)CC3)cc2)cc1` was tested, and the “hERG current change (%, negative = inhibition) at 10uM” value was 0.167%.
With `O=C(NC1CCS(=O)(=O)C1)/C(=C\c1ccccc1)NC(=O)c1ccccc1` (stereo not shown) the “hERG current change (%, negative = inhibition) at 10uM” value was -11%.
In the case of `CCCCN(Cc1ccco1)S(=O)(=O)c1csc(C(N)=O)c1`, the “hERG current change (%, negative = inhibition) at 10uM” value is reported as 2.8%.
In the case of `COc1ccc(C(CC(=O)O)NC(C)=O)cc1OC` (stereo not shown), the “hERG current change (%, negative = inhibition) at 10uM” value is reported as 10.4%.
In the case of `COc1cc(/C=C2/S/C(=N/S(=O)(=O)Cc3ccccc3)NC2=O)c([N+](=O)[O-])cc1OC`, the “hERG current change (%, negative = inhibition) at 10uM” value is reported as 8.72%.
For `CCOCCCNc1nc(C)nc2c1nnn2Cc1c(F)cccc1Cl`, the “hERG current change (%, negative = inhibition) at 10uM” value was -9.65%.
With `Cn1cccc1C(=O)NC(=O)COC(=O)c1cc([N+](=O)[O-])ccc1Cl` the “hERG current change (%, negative = inhibition) at 10uM” value was 12.4%.
With `COC(=O)c1ccc2c(=O)n(Cc3ccc(C(=O)NCCCN4CCOCC4)cc3)c(=S)[nH]c2c1` the “hERG current change (%, negative = inhibition) at 10uM” value was 14.7%.
For `Cc1cccc(OCC(=O)N2CCN(Cc3ccc([N+](=O)[O-])cc3)CC2)c1.O=C(O)C(=O)O`, the “hERG current change (%, negative = inhibition) at 10uM” value was -73%.
In the case of `COC(=O)c1cc(CN2C(=O)c3ccccc3C2=O)c(O)c([N+](=O)[O-])c1`, the “hERG current change (%, negative = inhibition) at 10uM” value is reported as 18.4%.
In the case of `Cc1ccc(S(=O)(=O)N2CCOCC2)s1`, the “hERG current change (%, negative = inhibition) at 10uM” value is reported as 13.3%.
`CN1CCN(C(=O)/C=C/c2ccccc2)CC1` was tested, and the “hERG current change (%, negative = inhibition) at 10uM” value was 4.5%.
In the case of `CCc1ccccc1NC(=O)c1ccc2snnc2c1`, the “hERG current change (%, negative = inhibition) at 10uM” value is reported as -4.77%.
For `COc1cc(/C=C/C(=O)N2CC(C)OC(C)C2)cc(OC)c1OC` (stereo not shown), the “hERG current change (%, negative = inhibition) at 10uM” value was 18.6%.
For `CN1C(=O)C(CC(=O)NC2CCCCC2)N(C)C1=O` (stereo not shown), the “hERG current change (%, negative = inhibition) at 10uM” value was 17.3%.
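Also: peak tail current of the secondary pulse compared with the same well before compound.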
